86 compounds from PubChem BioAssay AID1346428 (National Center for Advancing Translational Sciences (NCATS), 2018) can be followed below.

Among all 48,000 compounds or so, about 1,200 (2.5%) were called active. About 2% were inconclusive and are not listed.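 How the source made its calls: active means activation of at least 60% and not above a set upper limit (about 1 call in 100 departs from these limits); inconclusive means activation of 40% to 60%, or above that upper limit; inactive means activation under 40%.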 This is one part of the list.

In the experiment the target is Probable G-protein coupled receptor 32 (Homo sapiens) (UniProt O75388). The experiment in a line: qHTS for Agonists of Human Resolvin D1 Receptor DRV1. Further: 0% is about no effect. The following applies: CHO-K1 GPR32 beta-arrestin PathHunter luminescence, 90 min; at 76.9 µM; stronger effect = higher value; zero percent set by DMSO-only wells. An outline of the steps: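 Step 1: seed CHO-K1 GPR32 beta-arrestin cells, 2,500/well, overnight at 37 °C. Step 2: add compounds, 90 min at 37 °C. Step 3: detection reagent, 1 h ambient, then luminescence.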
Sequence of UniProt O75388 (O75388 whole entry, looked up): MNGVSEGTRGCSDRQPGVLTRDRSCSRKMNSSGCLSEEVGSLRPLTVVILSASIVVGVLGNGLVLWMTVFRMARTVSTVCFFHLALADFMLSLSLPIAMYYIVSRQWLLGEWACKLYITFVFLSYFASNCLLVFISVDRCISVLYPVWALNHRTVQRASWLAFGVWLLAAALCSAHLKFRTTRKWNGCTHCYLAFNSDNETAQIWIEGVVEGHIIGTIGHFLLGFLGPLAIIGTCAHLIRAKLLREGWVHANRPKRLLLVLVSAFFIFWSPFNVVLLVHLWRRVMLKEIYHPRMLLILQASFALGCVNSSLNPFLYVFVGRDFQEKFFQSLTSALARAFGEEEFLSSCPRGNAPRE
In general terms: Quantitative high-throughput screening tests each substance at several concentrations.
On to `CC1=C(C(N)=O)C(c2cccc(Br)c2)n2nc(SCc3ccccc3)nc2N1` (stereo unspecified), for which the activation was inactive: 0.76%.

As to `COc1cccc(NC(=O)Cn2cc(S(=O)(=O)N3CCCC3)c(S(=O)(=O)N3CCCC3)c2)c1`, the activation was inactive: -8.48%.

For the compound `Cc1ccccc1CNC(=O)Cn1ncn2nc(-c3cccs3)cc2c1=O`, the activation was inactive: -9.87%.

With `CCOc1ccccc1CNC(=O)c1cc2cc(S(=O)(=O)N3CCCCC3)ccc2n1C`, the activation was inactive: -0.884%.

With `CCc1ccc2oc(-c3cccc(NC(=O)c4ccc(N5CCC(C)CC5)c([N+](=O)[O-])c4)c3)nc2c1`, the activation is inactive: -5.85%.

On to `CCC(C)(CN(C)C)OC(=O)c1ccccc1` (stereo unspecified), for which the activation was inactive: 9.18%.

With `CC(=O)Nc1ccc(NC(=O)CCNS(=O)(=O)c2cccc3nsnc23)cc1`, the activation was inactive: -39.6%.

On to `CCC(Oc1ccccc1)C(=O)Nc1ccc2oc(-c3ccc(OC)cc3)nc2c1` (stereo unspecified), for which the activation was inactive: -14.5%.

As for `Cc1cccc(CSc2cn(CC(=O)N3CCCC3)c3ccccc23)c1`, the activation is inactive: -13.6%.

Regarding `Cc1cc(N2CCCCC2)nc2ccc(NC(=O)/C=C/c3ccccc3OC(C)C)cc12`, the activation was inactive: -29%.

In the case of `O=C(COc1ccc(S(=O)(=O)NC2CCCCC2)cc1)Nc1ccc(C(F)(F)F)cc1`, the activation was inactive: 15.1%.

In the case of `Cc1ccc(CNC(=O)CSCc2ccc(F)cc2)cc1`, the activation is inactive: -14.5%.

Regarding `O=S(=O)(c1ccccc1)n1nc(-c2ccccc2)nc1NCc1ccc(Cl)cc1`, the activation is inactive: -4.46%.

In the case of `CCOc1cccc(CC(=O)N2CCc3c([nH]c4ccccc34)C2c2ccc(F)cc2)c1OCC` (stereo unspecified), the activation was inactive: -24%.

As to `O=C(O)CCc1nc2ccccc2[nH]1`, the activation was inactive: 0.246%.

Take `Cc1ccc(C(=O)COC(=O)C(CC(C)C)NC(=O)C2CCC(C)CC2)cc1` (stereo unspecified): the activation was inactive: -0.0314%.

In the case of `CCc1ccccc1NC(=O)c1ccc2nc(CCc3ccccc3)oc2c1`, the activation is inactive: -12%.

Take `CCOc1ccc(CC(=O)Nc2c(C(=O)c3ccc(C)cc3)oc3ccccc23)cc1OCC`: the activation is inactive: 23.1%.

In the case of `CCC(=O)N1CCc2cc(Br)cc(S(=O)(=O)N3CCCC(C(=O)Nc4cccc(Cl)c4C)C3)c21` (stereo unspecified), the activation was inactive: -3.36%.

As for `CCCCNC(=O)CCn1c(=O)c2ccccc2n(Cc2ccccc2C#N)c1=O`, the activation was inactive: 0.495%.

Consider `CC(=O)c1cccc(NC(=O)C2CCCN(c3nnc(-n4cccc4)s3)C2)c1` (stereo unspecified), for which the activation was inactive: 5.83%.

Regarding `O=C(Cc1cccc([N+](=O)[O-])c1)NCc1nc2cccnc2n1Cc1ccc(F)cc1`, the activation was inactive: -16.4%.

In the case of `CCCN(CCC)CCCNC(=O)C1CCCN(S(=O)(=O)c2cccc3nsnc23)C1` (stereo unspecified), the activation is inactive: -10.3%.

For `CCOc1ccc(NS(=O)(=O)c2cc(Br)cc3c2N(C(=O)C2CC2)CC3)cc1`, the activation is inactive: 14.9%.

Consider `Cn1c(=O)cc(OCCCC(=O)Nc2ccc(F)cc2)c2ccccc21`, for which the activation is inactive: 0.209%.

As to `Cc1ccccc1-c1nc(CS(=O)(=O)CC(=O)N2CCN(c3ccccc3)CC2)c(C)o1`, the activation is inactive: 20.6%.

As for `COc1ccc(CNC(=O)Cc2csc3ccccc23)cc1OC`, the activation is inactive: -16.8%.

Turning to `CCc1nn(CC(=O)N2CCCCC2)c(=O)c2cc3sccc3n12`, the activation was inactive: 0.18%.

As to `COc1cccc(NC(=O)CCNS(=O)(=O)c2ccc(Br)s2)c1`, the activation is inactive: 13.1%.

`Cc1ccc(C)c(N2CCN(CCCNC(=O)Nc3cc(Cl)ccc3C)CC2)c1`: the activation is inactive: -3.85%.

As to `COc1cc(Br)c(/C=C(\C#N)c2nc3ccccc3[nH]2)cc1OC`, the activation was inactive: -19.8%.

As for `CC(NC(=O)c1cc(Sc2ccc(F)cc2F)nc2ccccc12)c1ccccc1` (stereo unspecified), the activation was inactive: -25.1%.

With `CCc1ccccc1NC(=O)C1CCC(CNS(=O)(=O)c2ccc3c(c2)CC(C)N3C(C)=O)CC1` (stereo unspecified), the activation was inactive: -8.88%.

As to `CC(C)CN1CCc2nc(N3CCN(c4ncccn4)CC3)ncc2C1`, the activation is inactive: -25%.

Consider `COc1cccc(C(=O)NCC(c2ccc(N(C)C)cc2)N2CCCC2)c1OC` (stereo unspecified), for which the activation is inactive: -0.929%.

Turning to `CC(C)OCCCNC(=O)c1ccc(-n2c(-c3ccccc3)cc3c2CCCC3)cc1`, the activation is inactive: -30.2%.

For `Cc1ccc(N2C(=O)CSC23C(=O)N(CC(=O)NC2CCCCC2)c2ccccc23)cc1` (stereo unspecified), the activation was inactive: -27.3%.

`CCOc1ccc(-c2nnc(SCC(=O)NCCC(C)C)nc2-c2ccc(OCC)c(OC)c2)cc1OC`: the activation was inactive: -7.8%.

Regarding `Cc1cn2c(=O)c(S(=O)(=O)NCCc3ccccc3)c(C)nc2s1`, the activation was inactive: 2.6%.

As to `COc1ccc2nc(NC(=O)c3nc(SCc4ccc(F)cc4)ncc3Cl)sc2c1`, the activation is inactive: 45.4%.

For the compound `COc1ccc2nc(SCC(=O)c3c(C)[nH]c4ccccc34)nc(C)c2c1`, the activation was inactive: 18.1%.

With `CCOc1ccc(OCC)c(NC(=O)C2CCN(S(=O)(=O)c3ccc(Br)s3)CC2)c1`, the activation is inactive: -17.6%.

On to `Cc1ccc(N2CCN(C(=O)Cc3c(C(=O)O)c(C)cn3C)CC2)c(C)c1`, for which the activation was inactive: -14.1%.

Take `Cc1ccc(S(=O)(=O)c2nnn3c2nc(N2CCN(c4ccc(F)cc4)CC2)c2cc(Cl)ccc23)cc1C`: the activation is inactive: 1.81%.

Take `O=C(Nc1ccc(F)cc1)[C@H](CSCc1ccccc1)N1Cc2ccccc2C1=O`: the activation is inactive: 10.6%.

`Cc1cccc(NC(=O)N2CCc3c(sc4c3CCCC4)C2c2ccc(F)cc2)c1` (stereo unspecified): the activation was inactive: 9.39%.

With `COc1cccc(-n2c(=O)c3c(C)c(C(=O)N(C)C)sc3n(CC(=O)NCCc3ccc(OC)c(OC)c3)c2=O)c1`, the activation is inactive: -1.32%.

Regarding `COc1ccc(-c2nc(C)c(CCNC(=O)Cc3ccc(F)cc3)s2)cc1OC`, the activation is inactive: 10.9%.

As for `CCc1ccc(NC(=O)C2CCN(C(=O)N3CC(CC)Oc4ccccc43)CC2)cc1` (stereo unspecified), the activation is inactive: -9.65%.

Regarding `CCc1ccc(NC(=O)CSc2nc3nccnc3c(=O)n2CCc2c[nH]c3ccccc23)cc1`, the activation is inactive: 7.42%.

As for `NC(=O)c1cccnc1`, the activation was inactive: -17.1%.

In the case of `OCc1ccc(-c2nn(Cc3ccccc3)c3ccccc23)o1`, the activation was inactive: -28.7%.

`Cc1cc(C)n2nc(SCC(=O)Nc3ccccc3)nc2n1`: the activation is inactive: 5.17%.

Consider `COc1cc(-c2nnc(SCC(=O)Nc3ccc(F)c(Cl)c3)o2)cc(OC)c1OC`, for which the activation was inactive: 1.16%.

In the case of `CC(C)N(Cc1ccccc1)C(=O)CCS(=O)(=O)c1cc2c(cc1Cl)NC(=O)CO2`, the activation was inactive: 6.09%.

With `Cc1cc(NC(=O)C(C)C)cc(-c2nc3ncccc3o2)c1O`, the activation is inactive: 20%.

In the case of `Cc1ccc2nc(-c3ccc(O)cc3)c(Nc3ccc4c(c3)OCO4)n2c1`, the activation was inactive: -13.8%.

Take `Cc1oc(-c2ccc(Cl)cc2)nc1CS(=O)CC(=O)NCc1ccc(Cl)cc1` (stereo unspecified): the activation was inactive: -8.84%.

As to `CCCNC(=O)C1CCN(S(=O)(=O)c2ccc3c(c2)CCCN3C(C)=O)CC1`, the activation is inactive: -9.84%.

Consider `Cc1cc2nc(-c3cc(NC(=O)c4cc5ccccc5o4)ccc3Cl)oc2cc1C`, for which the activation was inactive: -0.959%.

On to `COc1cccc(C(=O)Nc2ccccc2OCc2cc(=O)n3cc(C)ccc3n2)c1`, for which the activation is inactive: -7.73%.

As to `CCc1ccc(NC(=O)CSc2nc3n[nH]c(C)c3c(=N)n2-c2ccccc2C)cc1`, the activation was active: 61.7%.

For the compound `COc1ccc(N(CC(=O)NCCc2cccc(C)c2)S(=O)(=O)c2c(C)nn(C)c2C)cc1`, the activation was inactive: 0.265%.

Take `COc1ccccc1N1CCN(C(CNC(=O)C(=O)NCCCN(C)C)c2cccnc2)CC1` (stereo unspecified): the activation is inactive: 3.11%.

For the compound `CCOC(=O)C1=C(CS(=O)(=O)c2c(C)cc(C)cc2C)NC(=O)NC1c1cccc(OC)c1` (stereo unspecified), the activation was inactive: 24.4%.

For `O=C1CC(c2ccccc2C(F)(F)F)c2c(c3ccccc3[nH]c2=O)O1` (stereo unspecified), the activation was inactive: 4.44%.

As to `N#Cc1c(NC(=O)c2cc3nc(-c4ccc(Br)cc4)cc(C(F)(F)F)n3n2)sc2c1CCCC2`, the activation was inactive: -10.1%.

Consider `Cn1c(=O)c2c(ncn2CC(O)CO)n(C)c1=O` (stereo unspecified), for which the activation is inactive: -25.7%.

`CCOc1ccc(-c2c(C)nn3c(C)c(C(=O)Nc4ccccc4C(=O)OC)cnc23)cc1OCC`: the activation is inactive: 2.29%.

With `COC(=O)c1cccc(Nc2c(-c3ccc(O)c(OC)c3)nc3nc[nH]n23)c1`, the activation was inactive: -23.7%.

For `COCc1cc(C)nc2sc3c(c12)NC(c1ccc(O)cc1)N(c1ccc(OC)cc1)C3=O` (stereo unspecified), the activation was inactive: -23.5%.

As to `CCOc1ccc(NC(=O)C2Cc3ccccc3N2C(=O)c2ccccc2)cc1` (stereo unspecified), the activation is inactive: -12%.

With `CCCCOc1ccc(CNC(=O)C2CCN(c3nnc(-n4cccc4CNc4ccc(C)cc4)s3)CC2)cc1`, the activation is inactive: -18.2%.

Regarding `COCCn1c(C)cc(O)c(C(c2ccccc2)N2CCN(C)CC2)c1=O` (stereo unspecified), the activation was inactive: -18.7%.

Regarding `Cc1ccc(-c2nc3cc(C(C)C)ccc3o2)cc1NC(=O)c1cccs1`, the activation was inactive: 0.727%.

Turning to `COc1cc(Cn2c(=O)sc3ccccc32)ccc1OC(C)C`, the activation was inactive: 0.731%.

Consider `COc1ccccc1NC(=O)Cc1c(C(=O)O)[nH]c2ccc(Cl)cc12`, for which the activation was inactive: -19.5%.

For the compound `CCOC(=O)c1ccccc1NC(=O)N1CCC(N2CCN(Cc3ccccc3)C(=O)C2=O)CC1`, the activation was inactive: 4.15%.

As for `COC(=O)c1scc(-c2ccc(C)cc2)c1S(=O)(=O)N1CCN(c2ccc(OC)cc2)CC1`, the activation is inactive: -2.51%.

`COc1cc(OC)c(Nc2nc3ccccc3nc2-n2nc(C)cc2C)cc1Cl`: the activation was inactive: -25.2%.

For `O=C(Cn1c(=O)n(CC2CCCO2)c(=O)c2ccccc21)Nc1cccc(Cl)c1` (stereo unspecified), the activation was inactive: -2.83%.

For `Cc1ccc(-c2nc3nc(C)cc(Nc4ccccc4O)n3n2)cc1`, the activation was active: 72%.

As for `CCS(=O)(=O)N1CCc2cc(C(=O)NCc3ccccc3)ccc21`, the activation was inactive: 9.27%.

Regarding `Cc1ccc(N)cc1O`, the activation was inactive: -20.5%.

As for `Cc1ccc(CCn2c3c(c4cc(Cl)ccc42)CN(C)CC3)cn1`, the activation was inactive: -4.74%.

Regarding `COc1cc(OC)c(NS(=O)(=O)c2cc(-c3cnc(C)o3)ccc2OC)cc1Cl`, the activation was inactive: -12.7%.
